# Values joined by “and” are separate entries in the source; they are usually repeats but may differ in a detail not shown here. Equal entries are not always repeated. About 6,400 (1.6%) of roughly 410,000 compounds were called active. Inconclusive means that the source gave no clear call. Such entries were picked first, then a sample of the others. Calls follow the shape of the dose curve; as a rule, active = well fitted inhibition curve with a large enough effect; inconclusive = small, poorly fitted or top-dose-only effect; inactive = no such curve, though single readings can be large or run the other way. A potency beside an inconclusive call is a rough fit, not a confirmed value.
# Target: Glucagon-like peptide 1 receptor (Homo sapiens) (UniProt P43220)
# Experiment: qHTS of GLP-1 Receptor Inverse Agonists (Inhibition Mode); also: nearly all actives have a fitted effect of over 55% in size
# Settings: HEK293 GLP-1R CRE-luciferase, luminescence, 24 h, GLP-1R form is constitutively active; series mostly up to 38.3 µM
# Outline: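 Seeding at 200 cells/uL, 12 h culture, 24 hr compound treatment, then luciferase reagent and a luminescence read; cells are HEK293 stably expressing a constitutively active GLP-1R plus cAMP-responsive luciferase.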
# Potency is read from the fitted curve at half-maximal effect; tags tell the direction and shape of the fitted curve.
# Sequence of UniProt P43220 (P43220 whole entry, looked up): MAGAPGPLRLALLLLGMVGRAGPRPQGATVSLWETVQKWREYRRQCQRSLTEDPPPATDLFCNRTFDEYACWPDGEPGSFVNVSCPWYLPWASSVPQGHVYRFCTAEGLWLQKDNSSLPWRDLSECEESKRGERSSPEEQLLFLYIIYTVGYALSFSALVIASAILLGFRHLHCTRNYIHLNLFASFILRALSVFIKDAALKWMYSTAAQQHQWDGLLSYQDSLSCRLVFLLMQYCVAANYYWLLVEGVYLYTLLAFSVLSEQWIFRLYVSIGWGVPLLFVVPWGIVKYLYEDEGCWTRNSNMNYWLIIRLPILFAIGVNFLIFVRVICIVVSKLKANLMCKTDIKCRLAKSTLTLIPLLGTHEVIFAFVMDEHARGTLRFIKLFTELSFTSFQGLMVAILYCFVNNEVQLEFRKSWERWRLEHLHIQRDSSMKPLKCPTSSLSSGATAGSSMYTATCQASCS
row,Compound,Potency
1,COc1ccc2nc(N(CCN(C)C)C(=O)c3ccc4c(c3)OCCO4)sc2c1,"inconclusive: 12.6 µM [inhibitor, single point]"
2,Cc1ccc(-c2nc(CN(CC3CCC3)CC3CCCO3)c(C)o2)s1 (stereo not given),"inconclusive: 28.2 µM [inhibitor, single point]"
3,CC1CCC(NC(=O)c2ccc3c(c2)N(Cc2ccccc2)C(=O)c2ccccc2S3(=O)=O)CC1 (stereo not given),"inconclusive: 14.1 µM [inhibitor, single point]"
4,CCC(=O)Nc1ccccc1-c1nc2ccccc2n(C(C)C(=O)Nc2cccc(Cl)c2C)c1=O (stereo not given),"inconclusive: 20 µM [inhibitor, single point]"
5,O=C(c1ccc(Cl)cc1)c1ccc(CN2C(=O)c3ccccc3C2=O)o1,inactive
6,C/C(=N/NC(=O)CN(c1ccccc1)S(=O)(=O)c1ccccc1)c1ccccc1O,"inconclusive: 6.31 µM [inhibitor, partial curve, poor fit]"
7,CC(C)c1ccc(Nc2ncnc3c2nc2n3CCCC2)cc1,inactive
8,CC(NC(=O)CN1C(=O)NC(c2ccccc2)(c2ccccc2)C1=O)c1cccs1 (stereo not given),"inconclusive: 12.6 µM [inhibitor, single point]"
9,COc1ccccc1C1(CC(=O)O)CCOC(C(C)C)C1 (stereo not given),inactive
10,O=c1c2c(O)cc(O)cc2oc2ccc(O)c(O[C@@H]3O[C@H](CO)[C@@H](O)[C@H](O)[C@H]3O[C@H]3O[C@H](CO)[C@@H](O)[C@H](O)[C@H]3O)c12,"inconclusive: 28.2 µM [inhibitor, single point]"
11,CCOC(=O)N1CCC2(CC1)C(C#N)=C(N)Oc1c2sc2nc(C)cc(C)c12,inactive
12,Cc1ccc(N2CCN(C(C(=O)Nc3c(C)cccc3C)c3cccc(F)c3)CC2)cc1 (stereo not given),inactive
13,CCCN(CCC)S(=O)(=O)c1ccc(NC(=O)COc2ccccc2)cc1,"inconclusive: 8.91 µM [inhibitor, single point]"
14,Cc1cccc(-n2c(-c3csc4ccccc34)n[nH]c2=S)c1,"inconclusive: 10 µM [inhibitor, single point]"
15,COc1cccc(C(=O)COC(=O)COc2c(C)cc(C)cc2C)c1,inactive
16,COc1ccc(COc2cc(-c3cccc(OC)c3)nc3ccc(NC(=O)c4ccc(C)cc4)cc23)cc1,"inconclusive: 1.12 µM [inhibitor, full curve]"
17,O=C(NCCc1ccc(Cl)cc1)C1CCN(C(=O)c2ccc(F)cc2)CC1,"inconclusive: 15.8 µM [inhibitor, single point]"
18,Cc1ccc(C(=O)Nc2ccccc2N2CCCCC2)cc1S(=O)(=O)N1CCOCC1,"inconclusive: 14.1 µM [inhibitor, single point]"
19,O=C(NCC1CCCO1)C1CCN(C2CCN(CCCC3CCCC3)CC2)CC1 (stereo not given),"inconclusive: 1.78 µM [inhibitor, full curve]"
20,OCC1OC(Oc2c(Br)cc(Br)cc2Br)C(O)C(O)C1O (stereo not given),"inconclusive: 11.2 µM [inhibitor, single point]"
21,Cc1ccc(OC(=O)c2cccc(C(=O)Oc3ccc(C)cc3)n2)cc1,inactive
22,Cc1nn(-c2ccccc2)c(N)c1Sc1ccccc1[N+](=O)[O-],"inconclusive: 12.6 µM [inhibitor, single point]"

row,Compound,Potency
1,O=C(c1cccs1)N1CCN(C(=O)c2cccs2)C1=S,"inconclusive: 10 µM [inhibitor, partial curve, poor fit]"
2,CC(C)(C)n1ncc(Oc2ccccc2[N+](=O)[O-])c(Cl)c1=O,"inconclusive: 28.2 µM [inhibitor, single point]"
3,O=C(COc1ccc(F)cc1F)N1CCCCCCC1,"inconclusive: 28.2 µM [inhibitor, single point]"
4,CCOc1cc(O)c(-c2[nH]ncc2-c2nc(C)cs2)cc1CC,"inconclusive: 6.31 µM [inhibitor, partial curve, poor fit]"
5,O=C(COC(=O)c1cccc(S(=O)(=O)N2CCCCCC2)c1)Nc1ccccc1C(F)(F)F,inactive
6,Cc1cc(C)cc(-n2ccnc2SCC(=O)Nc2ccc(C)cc2C)c1,"inconclusive: 10 µM [inhibitor, single point]"
7,Cc1cc(C)cc(Nc2nc3ccccc3n3cnnc23)c1,inactive
8,CCc1ccc(NC(=O)Cc2csc(COc3cccc(C)c3)n2)cc1,"inconclusive: 11.2 µM [inhibitor, partial curve]"
9,Cc1nc2ccc(S(=O)(=O)NC(C(=O)N3CCN(c4ccc(Cl)cc4)CC3)C(C)C)cc2s1 (stereo not given),inactive
10,C=CCC1(CC=C)CCCN1Cc1nc(COc2ccccc2)no1,"inconclusive: 10 µM [inhibitor, partial curve, poor fit]"
11,O=C1C(Cl)=C(N2CCOCC2)C(=O)N1c1ccc(Br)cc1,inactive
12,Cn1c(=O)c(-c2ccccc2)nc2ccccc21,inactive
13,O=S(=O)(c1ccc2[nH]c3c(c2c1)CCCC3)N1CCN(c2cccc(C(F)(F)F)c2)CC1,active: 10 µM
14,O=C(Nc1ccc2c(c1)CCC2)c1cccc(F)c1,"inconclusive: 12.6 µM [inhibitor, single point]"
15,O=C(CSc1nnc(Cc2cccs2)n1Cc1ccco1)Nc1ccc(Br)cc1,active: 3.55 µM
16,COc1ccc(N2CC(C(=O)Nc3ccc(S(=O)(=O)N4CCCCC4)cc3)CC2=O)cc1 (stereo not given),"inconclusive: 10 µM [inhibitor, single point]"
17,O=C(O)c1cccc2c1-c1ccc(Cl)cc1C2=O,inactive
18,CC(C)CNS(=O)(=O)c1ccc(CCC(=O)N2CCN(c3ccccc3)CC2)cc1,"inconclusive: 12.6 µM [inhibitor, single point]"
19,C(=C\c1ccccc1)/CN1CCN(C(CCc2ccccc2)c2nnnn2C2CCCCC2)CC1 (stereo not given),"inconclusive: 11.2 µM [inhibitor, single point]"
20,CC(C)Sc1cc(N2CCCC2)nc(-c2ccc(F)cc2)n1,"inconclusive: 5.62 µM [inhibitor, full curve]"
21,O=C(c1ccccc1)N1N=C(C(F)(F)F)CC1(O)c1ccc(F)cc1 (stereo not given),"inconclusive: 11.2 µM [inhibitor, partial curve, poor fit]"
22,COc1ccc(-c2cnc3c(NC=O)cc(-c4ccc(F)cc4)cn23)cc1OC,"inconclusive: 0.282 µM [inhibitor, full curve, poor fit]"

row,Compound,Potency
1,C/C(=N\NC(=O)c1ccncc1)C12CC3CC(CC(C3)C1)C2,inactive
2,CCOC(=O)c1c(-c2ccc(OC)cc2)csc1NC(=O)CNCc1ccco1,"inconclusive: 10 µM [inhibitor, partial curve, poor fit]"
3,C=CCC1(CC=C)CCCN1C(=O)C1CCC(=O)N(CCc2ccc(Cl)cc2)C1 (stereo not given),"inconclusive: 28.2 µM [inhibitor, single point]"
4,COc1ccc(C2/C=C\CC(NS(=O)(=O)c3ccc(C)cc3)CC(=O)N2Cc2ccccc2F)cc1 (stereo not given),"inconclusive: 28.2 µM [inhibitor, single point]"
5,CC(C)c1ccc(N2CCN(C(=O)c3ccccc3NC(=O)/C=C\C(=O)O)CC2)cc1,"inconclusive: 12.6 µM [inhibitor, single point]"
6,OCCN1CCN(CC(O)COC(c2ccc(F)cc2)c2ccc(F)cc2)CC1 (stereo not given),active: 3.55 µM
7,COc1ccccc1NS(=O)(=O)c1cc(NC(=O)CC(C)(C)C)ccc1N1CCOCC1,"inconclusive: 28.2 µM [inhibitor, single point]"
8,CCN(CC)CCNC(=O)c1ccc(Sc2ccc(Cl)cc2)c(NC(C)=O)c1,"inconclusive: 7.94 µM [inhibitor, partial curve, poor fit]"
9,CN(C)CCCNc1oc(/C=C/c2cccs2)nc1S(=O)(=O)c1ccccc1,"inconclusive: 0.447 µM [inhibitor, full curve, poor fit]"
10,COc1ccc(/C=C/C(=O)c2ccc(NC3=NCCCS3)cc2)cc1OC,"inconclusive: 28.2 µM [inhibitor, single point]"
11,CCOc1ccc(C(=O)Nc2ccccc2C(=O)OCc2cc(=O)n3nc(C4CC4)sc3n2)cc1,inactive
12,Cc1cc(C)cc(NC(=O)Cn2nnc(C(=O)NCc3ccccc3Cl)c2N)c1,"inconclusive: 28.2 µM [inhibitor, single point] and inconclusive: 5.01 µM [inhibitor, full curve]"
13,Cc1ccc(CN2CCN(/N=C\c3cccc([N+](=O)[O-])c3)CC2)cc1,"inconclusive: 10 µM [inhibitor, partial curve, poor fit]"
14,O=C(NNCc1ccccc1)c1ccccc1,"inconclusive: 8.91 µM [inhibitor, partial curve, poor fit]"
15,S=C(NCc1ccco1)Nc1ccc(Cl)cc1Cl,"inconclusive: 10 µM [inhibitor, single point]"
16,CCC(C)Nc1nc(SC(C(C)=O)C(C)=O)nc(N(C)C)n1 (stereo not given),"inconclusive: 10 µM [inhibitor, partial curve]"
17,CN(C)CC(C)(C)CNC(=O)C1CCN(CCCc2ccccc2)CC1,"inconclusive: 28.2 µM [inhibitor, single point]"
18,Cc1ccc(-c2nc(CN(C)Cc3cccc4cnccc34)c(C)o2)s1,"inconclusive: 28.2 µM [inhibitor, single point]"
19,S=C(NCc1ccco1)Nc1cc(-c2ccccc2)[nH]n1,"inconclusive: 11.2 µM [inhibitor, single point]"
20,COc1cc(NC(=O)CCNS(=O)(=O)c2cc(Br)cnc2N)cc(OC)c1,"inconclusive: 10 µM [inhibitor, single point]"
21,COc1ccc(N/C=C/C(=O)c2sc(-c3ccccc3)nc2C)cc1,"inconclusive: 12.6 µM [inhibitor, partial curve, poor fit]"
